# Laboratory results: publication PMC6919601, “Identification of Plasmodium dipeptidyl aminopeptidase allosteric inhibitors by high throughput screening” (PLoS ONE, 2019)
# Hit rate of the full screen: of about 110,000 compounds, about 230 (0.21%) showed an effect of 50% or more. The list shows a part of the results.
# Molecular target: DPAP1 (Plasmodium falciparum, UniProt Q8IIJ9)
# Experiment: primary screen, percent inhibition; read by cleavage of a fluorogenic dipeptide substrate; higher = more effect of the substance
# Set-up: species or system P. falciparum D10 trophozoite lysates; single well
# 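Note: 30 min substrate incubation versus DMSO and 10 µM JCP410 controls.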
# Sequence of DPAP1 (Q8IIJ9 whole entry, looked up): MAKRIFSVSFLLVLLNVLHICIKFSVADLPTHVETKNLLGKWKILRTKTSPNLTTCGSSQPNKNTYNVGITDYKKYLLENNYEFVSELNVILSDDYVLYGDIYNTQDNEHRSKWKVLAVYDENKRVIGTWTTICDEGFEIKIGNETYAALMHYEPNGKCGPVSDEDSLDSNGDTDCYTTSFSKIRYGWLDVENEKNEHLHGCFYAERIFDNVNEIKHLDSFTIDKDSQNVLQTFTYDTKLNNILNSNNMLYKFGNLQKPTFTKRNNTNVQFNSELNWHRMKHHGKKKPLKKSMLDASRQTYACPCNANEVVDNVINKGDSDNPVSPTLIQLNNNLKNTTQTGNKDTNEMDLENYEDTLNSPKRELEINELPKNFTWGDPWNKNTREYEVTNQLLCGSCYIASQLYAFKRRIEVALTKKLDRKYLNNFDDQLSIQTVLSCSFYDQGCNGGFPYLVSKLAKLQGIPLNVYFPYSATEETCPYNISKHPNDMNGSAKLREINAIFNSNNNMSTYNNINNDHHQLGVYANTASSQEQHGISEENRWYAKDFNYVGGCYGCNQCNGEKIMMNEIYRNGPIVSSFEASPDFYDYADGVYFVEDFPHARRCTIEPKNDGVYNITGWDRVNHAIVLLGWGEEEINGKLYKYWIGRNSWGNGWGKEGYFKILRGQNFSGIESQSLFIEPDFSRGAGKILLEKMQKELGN
row,SMILES,% Inhibition @ 10 uM [%]
1,CCC(C)NC(=O)C1CC(c2cc(OC)c(OC)c(OC)c2)=NO1 (centres unmarked),-9.69
2,COC(=O)c1ccc(N2Cc3cccc(OC)c3Oc3ncccc32)s1,1.63
3,O=C(NC(c1ccccc1)c1ccccc1)c1ccncc1,-0.233
4,CCSc1nnc(NC(=O)c2cc(S(=O)(=O)N3CCOCC3)cn2C)s1,-7.66
5,COc1ccc(CCNC(=O)CCCc2nnc3n4nc(C)nc4c4ccccc4n23)cc1OC,-2.92
6,Clc1ccc(-n2cccc2)cc1,-5.76
7,COC(=O)c1cnn2c(C)c(Cc3ccccc3Cl)c(C)nc12,-0.812
8,N#C/C(=C/Nc1ccccc1)c1nc(-c2ccc(Cl)cc2)cs1,-6.01
9,COc1cccc(C(=O)NC2(C(F)(F)F)C(=O)N(CC(C)C)C3=C2C(=O)CC(C)(C)C3)c1 (centres unmarked),-2.74
10,CCOC(=O)c1c(NC(=O)c2cc(-c3ccco3)on2)sc(C(C)=O)c1C,-1.21
11,CCOC(=O)C1=CN(C)C=C(C(=O)OCC)C1c1ccc(F)cc1,6.48
12,Clc1ccc(Nc2nc(Nc3ccc(Cl)cc3)nc(N3CCOCC3)n2)cc1,0.526
13,O=C(CSc1nnc(CNC(=O)c2c(F)cccc2Cl)o1)c1ccccc1,-1.58
14,O=C(C1=C(O)C(=O)N(CCN2CCOCC2)C1c1cccc(O)c1)c1cc2ccccc2o1 (centres unmarked),-0.28
15,Cc1ccc(S(=O)(=O)Nc2ccc3nc(-c4cccc(F)c4)oc3c2)cc1,4.12
16,CCCCNC(=O)c1ccc2c(SCC(=O)O)c3c(nc2c1)CCCC3,-2.45
17,N#CC1=C(N)Oc2c(ccc3ccccc23)C1c1ccc(C(F)(F)F)cc1 (centres unmarked),2.91
18,CCOc1ccc(/C=C/c2nc(C#N)c(N3CCN(C)CC3)o2)cc1,3.27
19,CCC(Sc1nc2ccncc2[nH]1)C(=O)N(CC)CC (centres unmarked),-0.85
20,C#CCSc1nc2c(cc1C#N)CCCC2,1
21,CC1CN(Cc2c(O)ccc3ccccc23)CC(C)O1 (centres unmarked),-7.91
22,O=C1C2C3C=CC(CC3)C2C(=O)N1Cc1ccccc1 (centres unmarked),7.1

row,SMILES,% Inhibition @ 10 uM [%]
1,O=C(c1ccc(N2C(=O)C3CC=CCC3C2=O)cc1)N1CCCCC1 (centres unmarked),0.323
2,Cc1ccc(C2=NCCNC2=O)c(C)c1,-9.56
3,O=C(/C=C/c1ccco1)Nc1scc(-c2ccccc2)c1C(=O)O,2.94
4,Cc1sc(C2C(C#N)=C(N)OC3=C2C(=O)CCC3)cc1COc1ccccc1Br (centres unmarked),1.35
5,Cc1cc(O)n2nc(NC(=O)c3ccco3)nc2n1,0.401
6,Cc1nc(NCCO)c2c3c(sc2n1)CCCC3,-2.59
7,COc1ccc(S(=O)(=O)Nc2ccccc2C(=O)NCC(C)C)cc1Br,-3.6
8,Cc1cccc(Nc2ccncc2S(=O)(=O)NC(=O)NC2CCCCC2)c1,-2.29
9,Cc1ccc(C2=NS(=O)(=O)N(C)C(C(=O)N3CCOCC3)=C2)cc1,3.92
10,CC(=O)N1N=C(c2ccc(Cl)c(Cl)c2)CC1c1ccccc1 (centres unmarked),3.06
11,CC1=CCC2C(=O)N(c3ccc(F)c(Cl)c3)C(=O)C2C1 (centres unmarked),-5.06
12,COc1cc(C2C(C#N)=C(N)OC3=C2C(=O)CCC3)ccc1OCc1ccc(C)cc1 (centres unmarked),-2.68
13,Cc1ccc(NS(=O)(=O)NC(=O)Nc2nc(C)cc(C)n2)nc1,1.29
14,COc1cccc(Cn2ccn(Cc3ccccc3OC)c(=O)c2=O)c1,0.0845
15,COc1c(Cl)cc(Cl)cc1C(=O)Nc1ccc(C(=O)O)cc1,-2.09
16,CC(C)(C)c1nnc(NC(=O)c2sc3ccccc3c2Cl)s1,0.565
17,OC(c1ccc(F)cc1)(c1ccc(F)cc1)[C@@H]1CCCN1,1.43
18,CC1(C)Cc2c(sc3ncn4nc(-c5ccncc5)nc4c23)CO1,-1.69
19,CC(C)C[C@@H](C(=O)NC1(C#N)CC1)c1cccc(-c2cccc(-c3csc(N4CCN(C)CC4)n3)c2)c1,3.19
20,CCOC(=O)c1c(C)c(-c2ccccc2)n(CC(=O)N2C(C)CCCC2C)c1C (centres unmarked),1.72
21,CCOC(=O)c1cnc2nc(C(F)(F)F)nn2c1N,3.66
22,O=C1N=C(N2CCCC2)S/C1=C\c1ccc(OCc2ccccc2F)cc1,-6.53

row,SMILES,% Inhibition @ 10 uM [%]
1,COc1ccc(C(=O)N2CCN(Cc3cccc(Cl)c3)CC2)cc1,-8.07
2,C=CCNC(=O)c1c(NC(=O)c2ccccc2)sc2c1CCCC2,0.431
3,O=C(O)CCC(=O)Nc1ccccc1Br,-0.999
4,O=C1c2ccccc2C(=O)N1CC1OCc2ccccc2CO1,-0.467
5,COc1cc(/C=C2/NC(=O)N(c3cccc(Cl)c3)C2=O)ccc1O,-8.46
6,N#CCCS(=O)(=O)c1ccc(N)cc1,-1.77
7,O=C(NC1CCCCC1)C1C2C=CC3(CN(Cc4cccs4)C(=O)C13)O2 (centres unmarked),-4.65
8,CSCCCN1CCN(CCOCCO)CC1,-1.21
9,COc1cccc(OC)c1C(=O)NC1CCCCC1,2.41
10,CN(C)c1ccc(-c2nc3ccccc3o2)cc1,-0.507
11,COc1cc(/C=C2/C(=N)N3OC(C)=CC3=NC2=O)cc(Cl)c1OCc1ccccc1F,3.63
12,CN1CCN(C(=O)/C(=C/c2ccc(N(C)C)cc2)NC(=O)c2ccccc2)CC1,-3.19
13,C=CCn1c(SCC(=O)c2ccccc2)nc2sc3c(c2c1=O)CCC3,-0.142
14,CC(=C=CC(C)(C)C1NCCO1)CCC=C(C)C (centres unmarked),-5.9
15,Cc1cc(C)c(Cc2c(C)nc3c(C(=O)NCCC(C)C)cnn3c2C)c(C)c1,-4.06
16,Cc1cc2c(c(=O)n1Cc1ccccn1)C(c1cc3c(cc1Br)OCO3)C(C#N)=C(N)O2 (centres unmarked),-2.91
17,CCCCN(C)C(=O)Cn1nc(CC)n2c(cc3sccc32)c1=O,3.4
18,CCN1CCc2nc3sc(C(=O)Nc4cccnc4Cl)c(N)c3cc2C1,3.66
19,N#CC1c2ccccc2C=CN1C(=O)c1ccc(F)cc1 (centres unmarked),2.17
20,CCN1CCN(C(=O)c2ccc(-n3c(C)cc4c3CCCC4)cc2)CC1,-0.613
21,Nc1cccc(C(=O)CC2(O)C(=O)Nc3ccc(Br)cc32)c1 (centres unmarked),-2.74
